Measurements published in paper PMC12040169 (PLOS Biology, 2025).
Some of the results follow.

Test system: T1, C. trachomatis L2/434/Bu expressing GFP (CTL2-GFP)
T1 construct: L2/434/Bu GFP intracellular growth in HeLa cells
Design: species or system HeLa; C. trachomatis total inclusion area by high-content imaging, normalised to DMSO
Conditions: total inclusion area; 28.5 h, 10 µM; inhibitor
Method in brief: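 After bulk GFP and resorufin fluorescence reads, cells were fixed, stained with Hoechst and imaged by high-content microscopy. Inclusion area and number (GFP) stood in for chlamydial growth, nuclei count (Hoechst) for host cell viability. MICs were derived as for the bulk readout.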

Compound | % of control remaining
COc1ccccc1N1CCN(C(=O)CC2(CC(=O)O)CCCC2)CC1 [CBK296137] | 68.7763
CCN(CC)C(=O)CN1CCC(Oc2nccnc2OCCN2CCOCC2)CC1 [CBK082928] | 95.7077
Cc1n[nH]c(-c2ccccc2NC(=O)Cc2sc(C)nc2-c2cccs2)n1 [CBK297737] | 99.9794
CC(C)(C)C(=O)N1CCCC(c2cc3cccnc3[nH]2)C1 (stereo not drawn) [CBK284945] | 73.9853
CC(=O)c1cccc(NC(=O)c2cccn(Cc3ccc(C)cc3)c2=O)c1 [CBK294427] | 105.694
CN1CCN(c2nc(-c3ccco3)cn3ccnc23)CC1 [CBK038045] | 84.5414
CCCCOC(=O)CCc1nc2ccccc2nc1O [CBK264523] | 111.242
Cc1ccc(S(=O)(=O)N2CCC(C(=O)NC3(C(=O)O)CCCCC3)CC2)cc1 [CBK295644] | 106.437
C1=Nn2c(nnc2-c2ccncc2)SC(c2ccccc2)=C1 [CBK288535] | 72.6648
CCOCCCNC(=O)c1ccc(-c2cc(Oc3ccc(OC)cc3)ncn2)cc1 [CBK291209] | 80.7896
N#Cc1nc(COc2ccc(Br)cc2)oc1NC1CC1 [CBK266470] | 106.626
CCCCC(=O)NC1CCN(C(=O)c2cccc(C#N)c2)CC1 [CBK306309] | 65.5934
CCOc1cc(NC2CCN(C(=O)C(C)(C)C3CCCC3)CC2)ncn1 [CBK304430] | 42.3409
CC(=O)Nc1cccc(-c2ccc(N3CCN(CCN(C)C)CC3)nc2)c1 [CBK036857] | 135.168
CCOC(=O)c1c(NC(=S)NCc2ccccn2)sc2c1CCCCC2 [CBK266954] | 116.502
O=C1COc2ccccc2C/C=C/CC2(CCN(CC3CCOCC3)CC2)CN1 [CBK292128] | 104.395
O=C1NCCNC(=O)C2(C/C=C/COc3ccccc31)CCCNC2 (stereo not drawn) [CBK292171] | 113.649
CC(=O)c1ccc(-c2nccnc2N(C)Cc2ccccc2)s1 [CBK037504] | 130.194
O=C(Nc1cccc(Cl)c1Cl)c1cnc2n(c1=O)CCS2 [CBK287380] | 65.7578
OC(CN1CCC(O)(c2ccc(F)cc2)CC1)c1ccc(Cl)cc1 (stereo not drawn) [CBK283311] | 86.5556
Nc1ncnc(NCCc2c[nH]c3ccccc23)c1[N+](=O)[O-] [CBK267283] | 52.887

Compound | % of control remaining
COc1ccc(CC(=O)N2CCC(Cc3ccccc3-c3ccccc3)(C(N)=O)CC2)cc1 [CBK285911] | 117.228
COc1ccccc1OCC(O)CN1CCN(C(=O)c2ccccc2)CC1 (stereo not drawn) [CBK074386C] | 95.621
CCOC(=O)c1cnn(C2CCCN(Cc3c(C)n[nH]c3C)C2)c1 (stereo not drawn) [CBK304059] | 82.8589
O=C(c1c(F)cccc1F)N1CCC(c2cc3cccnc3[nH]2)CC1 [CBK284997] | 95.967
Cc1cc(NC(=O)CCN2CCCCC2)no1 [CBK017079] | 97.4373
O=C(NCc1cccs1)c1ccc2c(=O)n3c(nc2c1)CCN(Cc1ccccc1)CC3 [CBK286448] | 78.4214
O=C(Nc1nc2c(s1)CCCCC2)C1CN(S(=O)(=O)c2ccc(F)cc2)C1 [CBK286005] | 96.4004
COc1ccccc1C1(NC(=O)c2cnsc2)CCCC1 [CBK283643] | 107.962
O=C1c2ccc(S(=O)(=O)c3ccc4c(c3)C(=O)N(c3nccs3)C4=O)cc2C(=O)N1c1nccs1 [CBK261335] | 94.6289
Cc1noc(C)c1NC(=O)c1ccno1 [CBK200394] | 103.718
O=S(=O)(/N=C(/c1ccc(Cl)cc1)N1CCOCC1)c1ccccc1 [CBK293950] | 102.221
CC1=CCC2(CC1)COC(C(C)(C)CN(C)C)OC2 (stereo not drawn) [CBK011369] | 118.157
Cc1ccc(-c2nc3ccccc3s2)cc1NC(=O)c1sc2ccccc2c1Cl [CBK263865] | 111.829
CC(C)COC(=O)N1CCC(N(C)Cc2ccc(-c3ccc(S(C)(=O)=O)cc3)nc2)CC1 [CBK165259T] | 55.6879
Cn1ncc2c(=O)n(Cc3noc(-c4ccsc4)n3)cnc21 [CBK305056] | 54.451
COC(=O)c1csc2c1N[C@H](C1CC3C=CC1C3)[C@@H]1CCO[C@H]21 (stereo partly drawn) [CBK303251] | 72.3476
COc1cc2c(cc1OC)C1c3ccccc3NC(c3ccccc3F)N1CC2 (stereo not drawn) [CBK286311] | 91.883
Cc1nc2ccc(C(=O)N3CCCCC3)cn2c1N(C)C=O [CBK145480] | 97.676
O=C(NCc1ccccc1)c1cnsn1 [CBK267302] | 107.145
Cc1ccc(OCC(=O)Nc2ncn(Cc3cccnc3)n2)cc1 [CBK304888] | 71.5868
Cc1ccc(CNC(=O)c2ccc(-n3ccnc3)c(-n3cccc3)c2)o1 [CBK284812] | 110.133

Compound | % of control remaining
CC(NCc1nc(=O)c2sccc2[nH]1)c1ccc2c(c1)OCCO2 (stereo not drawn) [CBK295157] | 95.8339
CCC1=C(C)C(=O)N(C(=O)NCCc2ccc(S(=O)(=O)NC(=O)NC3CCC(C)CC3)cc2)C1 (stereo not drawn) [CBK011561] | 86.6886
Cc1ncc(COP(=O)(O)O)c(/C=N/c2ccc3ccccc3c2)c1O [CBK261460] | 70.8087
CC(Cc1cccs1)NC(=O)c1cc(C2CC2)on1 (stereo not drawn) [CBK283244] | 84.7285
CC(C)=NNC(=O)CN(c1ccc(C)cc1)S(=O)(=O)c1ccccc1 [CBK262280] | 88.5864
CNC(C)Cc1ccccc1Sc1ccccc1 (stereo not drawn) [CBK027167G] | 63.4599
CC(Oc1ccccc1)C(=O)Nc1ccccc1-c1ccccc1 (stereo not drawn) [CBK264059] | 80.0868
Cc1noc(C)c1NC(=O)N(Cc1ccccc1C(F)(F)F)C1CCC(N)CC1 (stereo not drawn) [CBK045963C] | 53.0347
COc1ccc(CN2CCCc3ccccc32)cc1 [CBK126458] | 94.5396
COC(=O)NC(=S)Nc1ccc2c(c1)OCCO2 [CBK018644] | 92.588
CCC(C)(CC(=O)O)CC(=O)N1CCC2(C1)NCCc1c2[nH]c2ccccc12 (stereo not drawn) [CBK047003] | 102.155
O=C(Nc1ccccc1C(=O)O)c1ccccc1Cl [CBK287114] | 99.5583
CCN(CC)CCNC(=O)C1CCCCN1S(=O)(=O)c1ccc(C)cc1 (stereo not drawn) [CBK101088] | 80.6952
COC(=O)c1cccc(OCC(O)Cn2ccnc2)c1 (stereo not drawn) [CBK307408] | 91.734
COc1ccc(Cl)cc1N1CCN(Cc2ccc(C(C)C)cc2)CC1 [CBK126407] | 76.1183
Cc1ccc(-n2nc(-c3ccc(NC(=O)c4ccccc4)cc3)cc2NC(=O)c2ccccc2)cc1 [CBK261265] | 93.6087
CCOC(=O)C1CC1CN1CCCN(S(=O)(=O)c2ccc(C(=O)c3ccccc3)cc2)CC1 (stereo not drawn) [CBK063028] | 81.1196
O=C(c1ccco1)N1Cc2nc[nH]c2C[C@H]1c1nc(-c2ccc3ccccc3c2)no1 [CBK288965] | 99.5722
COc1ccc(C2(C(F)(F)F)NC(=O)N3CCN=C3S2)cc1 (stereo not drawn) [CBK019170] | 107.337
COc1ccc(-c2nnc(SCc3csc(Nc4ccccc4)n3)n2-c2ccccc2)cc1 [CBK265205] | 110.593
c1ccc2c(c1)OCC(COc1nccc(N3CCCNCC3)n1)O2 (stereo not drawn) [CBK085471] | 86.7815

Compound | % of control remaining
FC(F)(F)c1ccnc(OCCc2c[nH]c3ccccc23)n1 [CBK116625] | 75.8243
CCn1cc(-c2cncn2CCN(C)C2CCCC2)cn1 [CBK281551] | 91.4927
CCOC(=O)CN1CCN(S(=O)(=O)c2ccc3ccccc3c2)CC1 [CBK043738] | 82.3179
O=C1Nc2ccc(-c3ccsc3)cc2C1(O)O [CBK000421] | 65.8609
CCNC(=O)N1C(CC(=O)Nc2cccc(OC)c2)C(=O)NC2CCCCC21 (stereo not drawn) [CBK269848] | 63.6448
CNC(=O)C1(C)CCCN1C(=O)c1cc2cc(C)ccc2n1C (stereo not drawn) [CBK281375] | 108.031
C=C(C)Cn1c(SCC(C)C)nnc1-c1ccc(F)cc1 [CBK200085] | 108.091
O=C(c1cc2c(s1)CCC2)N1CCC[C@H]1[C@H](O)c1nccs1 [CBK284287] | 58.6891
COc1ccc(S(=O)(=O)N(C)CC(=O)Nc2cccc(C(F)(F)F)c2)cc1OC [CBK266242] | 138.066
COc1ccccc1-c1nnc(SCC(=O)O)n1-c1ccccc1 [CBK116149] | 92.8654
CCN1CCN(C(=O)CN(Cc2ccccc2)S(=O)(=O)c2c(C)cc(C)cc2C)CC1 [CBK266670] | 89.5918
CSCCN1CCC(Oc2nccnc2OC2CCCCC2)CC1 [CBK082873T] | 87.3955
CCOc1cc(OCC)cc(C(=O)Nc2ccc(-c3nc4ncccc4o3)cc2)c1 [CBK263440] | 101.501
O=S(=O)(c1cccc2nonc12)N1CCCCCC1 [CBK265627] | 118.375
N#CCCCCn1cc(NC(=O)NCCc2cccs2)cn1 [CBK044855] | 102.668
CCOC(=O)c1cnn2c(O)cc(CN(Cc3ccco3)C3CC3)nc12 [CBK305613] | 78.2859
CCN(CC)C(=O)Cn1nc(C)n2c(cc3ccsc32)c1=O [CBK284104] | 81.8035
Cc1cc2oc(=O)cc(COC(=O)c3ccc(-n4cccn4)cc3)c2cc1Cl [CBK296626] | 84.3044
